Test results reported in patent EP0814162A2 (priority 1996, dated 1997).
Converted amounts (≈) assume the structure as drawn.

Test system: strain Wood 46-3
Test: microbe, parasite or virus in culture
Settings: Staphylococcus aureus, WOOD463

Q: `CC[C@H]1OC(=O)[C@H](C)[C@@H](O[C@H]2C[C@@](C)(OC)[C@@H](O)[C@H](C)O2)[C@H](C)[C@@H](O[C@@H]2O[C@H](C)C[C@H](N(C)C)[C@H]2O)[C@](C)(O)C[C@@H](C)C(=O)[C@H](C)[C@@H](O)[C@]1(C)O` [Erythromycin] was tested. Which MIC did it give?
A: Its MIC is 0.008 µg/mL (≈ 0.0109 µM).

Q: `C[C@@H]1O[C@@H]1P(=O)(O)O` [Fosfomycin] was tested. Which MIC did it give?
A: The MIC was 0.25 µg/mL (≈ 1.81 µM).

Q: Which MIC does the source give for `COc1cccc(OC)c1C(=O)N[C@@H]1C(=O)N2[C@@H]1SC(C)(C)[C@@H]2C(=O)O` [Methicillin] here?
A: The MIC was 2 µg/mL (≈ 5.26 µM).

Q: Which MIC does the source give for `Cc1onc(-c2ccccc2)c1C(=O)N[C@@H]1C(=O)N2[C@@H]1SC(C)(C)[C@@H]2C(=O)O` [Oxacillin] here?
A: Its MIC is 0.25 µg/mL (≈ 0.623 µM).

Q: Which MIC does the source give for `CN[C@H](CC(C)C)C(=O)N[C@H]1C(=O)N[C@@H](CC(N)=O)C(=O)N[C@H]2C(=O)N[C@H]3C(=O)N[C@H](C(=O)N[C@H](C(=O)O)c4cc(O)cc(O)c4-c4cc3ccc4O)[C@H](O)c3ccc(c(Cl)c3)Oc3cc2cc(c3O[C@@H]2O[C@H](CO)[C@@H](O)[C@H](O)[C@H]2O[C@H]2C[C@](C)(N)[C@H](O)[C@H](C)O2)Oc2ccc(cc2Cl)[C@H]1O` [Vancomycin] here?
A: Its MIC is 1 µg/mL (≈ 0.69 µM).
